Patent US20260200997A1 (REPLIGEN, published 2026)
Changes are numbered by the printed parent chain.

B1: SEQ ID NO 10 (designed binder)
chain: MAQGTVDAKFDKELEEARAEIERLPNLTETQRRNFIDALRKDPSTSAGLLAIAKRWNDEQAPKGQAGQGGGSGLNDIFEAQKIEWHECHHHHHH
modifications: biotinylated (Avitag system)
notes: 3 helical bundle ligand with Avitag; N-terminal Met may be absent; also called 10
B2: SEQ ID NO 2 (designed binder)
chain: B1 chain with N34E, A38L, K41L, T45Q, G48S, I52V, R55G, E59K
modifications: biotinylated (Avitag system)
notes: 3 helical bundle ligand with Avitag and His tag; N-terminal Met may be absent
B3: SEQ ID NO 3 (designed binder)
chain: B1 chain with T30V, A38S, K41A, T45D, G48A, R55G, E59Q
modifications: biotinylated (Avitag system)
notes: as for B2
B4: SEQ ID NO 6 (designed binder)
chain: B1 chain with T30V, N34E, D37L, A38H, I52V, E59Q
modifications: biotinylated (Avitag system)
notes: as for B2
B5: SEQ ID NO 12 (designed binder)
chain: B1 chain with T30L, N34H, D37E, T45S, I52V, R55K, E59T
modifications: biotinylated (Avitag system)
notes: 3 helical bundle ligand with Avitag and His tag; N-terminal Met may be absent; also called 12
B6: SEQ ID NO 8 (designed binder)
chain: B1 chain with T30H, D37E, K41L, T45Q, R55N, E59K
modifications: biotinylated (Avitag system)
notes: as for B2
B7: SEQ ID NO 13 (designed binder)
chain: B1 chain with T30D, N34Q, D37W, A38T, K41H, T45E, G48T, R55G, E59K
modifications: biotinylated (Avitag system)
notes: 3 helical bundle ligand with Avitag and His tag; N-terminal Met may be absent; also called 13
B8: SEQ ID NO 9 (designed binder)
chain: B1 chain with T30A, K41V, T45D, G48S, R55S, E59S
modifications: biotinylated (Avitag system)
notes: as for B2
B9: SEQ ID NO 7 (designed binder)
chain: B1 chain with T30H, N34Y, D37F, K41D, T45K, G48L, I52A, W56H
modifications: biotinylated (Avitag system)
notes: as for B2
B10: SEQ ID NO 14 (designed binder)
chain: B1 chain with T30E, A38H, T45H, R55N, E59A
modifications: biotinylated (Avitag system)
notes: 3 helical bundle ligand with Avitag and His tag; N-terminal Met may be absent; also called 14
B11: SEQ ID NO 4 (designed binder)
chain: B1 chain with T30Q, D37H, K41Q, T45D, G48A, R55A, E59R
modifications: biotinylated (Avitag system)
notes: as for B2
B12: SEQ ID NO 11 (designed binder)
chain: B1 chain with T30S, D37E, K41Y, T45H, G48S, I52V, R55G, E59R
modifications: biotinylated (Avitag system)
notes: 3 helical bundle ligand with Avitag and His tag; N-terminal Met may be absent; also called 11
B13: SEQ ID NO 5 (designed binder)
chain: B1 chain with T30E, D37Q, T45D, G48S, R55N, E59K
modifications: biotinylated (Avitag system)
notes: as for B2
B14: SEQ ID NO 38 (designed binder)
chain: MAQGTVDAKFDKELEEARAEIERLPNLTEEQRRNFIEALRTDPSISAGLLAVAKGWNDKQAPKAAACGLNDIFEAQKIEWHEHHHHHH
modifications: biotinylated (Avitag system)
notes: 3 helical bundle ligand with Avitag and His tag; N-terminal Met may be absent; also called 38
B15: SEQ ID NO 36 (designed binder)
chain: MAQGTVDAKFDKELEEARAEIERLPNLTEHQRRYFIFSLRNDPSASAILLAAAKRHNDHQAPKAAACGLNDIFEAQKIEWHEHHHHHH
modifications: biotinylated (Avitag system)
notes: 3 helical bundle ligand with Avitag and His tag; N-terminal Met may be absent; also called 36
B16: SEQ ID NO 19 (designed binder)
chain: B14 chain with E30S, E37I, I45E, G48A, V52I, G55D, K59R
modifications: biotinylated (Avitag system)
notes: 3 helical bundle ligand with Avitag and His tag; N-terminal Met may be absent; also called 19
B17: SEQ ID NO 17 (designed binder)
chain: B14 chain with E30V, N34Q, A38Y, T41L, I45A, G48E, V52L, K59R
modifications: biotinylated (Avitag system)
notes: 3 helical bundle ligand with Avitag and His tag; N-terminal Met may be absent; also called 17
B18: SEQ ID NO 16 (designed binder)
chain: B14 chain with E30V, N34E, E37G, A38L, I45L, G55E, K59R
modifications: biotinylated (Avitag system)
notes: 3 helical bundle ligand with Avitag and His tag; N-terminal Met may be absent; also called 16
B19: SEQ ID NO 28 (designed binder)
chain: B14 chain with E30D, T41S, V52A, W56H
modifications: biotinylated (Avitag system)
notes: 3 helical bundle ligand with Avitag and His tag; N-terminal Met may be absent; also called 28
B20: SEQ ID NO 27 (designed binder)
chain: B14 chain with E30D, N34E, E37S, A38Y, T41L, I45E, G48A, V52I, G55T, K59R
modifications: biotinylated (Avitag system)
notes: 3 helical bundle ligand with Avitag and His tag; N-terminal Met may be absent; also called 27
B21: SEQ ID NO 21 (designed binder)
chain: B14 chain with E30V, N34A, E37S, A38S, T41Q, I45D, G48A, V52I, G55N
modifications: biotinylated (Avitag system)
notes: 3 helical bundle ligand with Avitag and His tag; N-terminal Met may be absent; also called 21
B22: SEQ ID NO 31 (designed binder)
chain: B15 chain with H30W, F37E, N41I, A45T, I48H, A52G, H56V, H59K
modifications: biotinylated (Avitag system)
notes: 3 helical bundle ligand with Avitag and His tag; N-terminal Met may be absent; also called 31
B23: SEQ ID NO 29 (designed binder)
chain: B15 chain with F37Y, N41F, A45Q, I48V, H59E
modifications: biotinylated (Avitag system)
notes: 3 helical bundle ligand with Avitag and His tag; N-terminal Met may be absent; also called 29
B24: SEQ ID NO 34 (designed binder)
chain: B14 chain with E30L, E37D, T41S, I45V, G55T, K59R
modifications: biotinylated (Avitag system)
notes: 3 helical bundle ligand with Avitag and His tag; N-terminal Met may be absent; also called 34
B25: SEQ ID NO 25 (designed binder)
chain: B14 chain with E37D, A38H, T41L, I45Q, G48T, V52L, K59R
modifications: biotinylated (Avitag system)
notes: 3 helical bundle ligand with Avitag and His tag; N-terminal Met may be absent; also called 25
B26: SEQ ID NO 18 (designed binder)
chain: B14 chain with E30L, N34E, E37S, A38L, T41L, I45Q, G48S, K59Q
modifications: biotinylated (Avitag system)
notes: 3 helical bundle ligand with Avitag and His tag; N-terminal Met may be absent; also called 18
B27: SEQ ID NO 20 (designed binder)
chain: B14 chain with E30I, N34E, E37N, A38L, T41D, I45Q, G55A
modifications: biotinylated (Avitag system)
notes: 3 helical bundle ligand with Avitag and His tag; N-terminal Met may be absent; also called 20
B28: SEQ ID NO 24 (designed binder)
chain: B14 chain with E30V, N34E, E37A, A38L, T41I, I45D, V52I, G55H, K59S
modifications: biotinylated (Avitag system)
notes: 3 helical bundle ligand with Avitag and His tag; N-terminal Met may be absent; also called 24
B29: SEQ ID NO 15 (designed binder)
chain: B14 chain with E30V, N34S, E37D, A38Y, T41L, I45Q, G48S, V52I, G55T, K59R
modifications: biotinylated (Avitag system)
notes: 3 helical bundle ligand with Avitag and His tag; N-terminal Met may be absent; also called 15
B30: SEQ ID NO 30 (designed binder)
chain: B14 chain with N34E, E37I, I45Q, W56F
modifications: biotinylated (Avitag system)
notes: 3 helical bundle ligand with Avitag and His tag; N-terminal Met may be absent; also called 30
B31: SEQ ID NO 23 (designed binder)
chain: B14 chain with E37Q, A38V, I45D, G48W, K59R
modifications: biotinylated (Avitag system)
notes: 3 helical bundle ligand with Avitag and His tag; N-terminal Met may be absent; also called 23
B32: SEQ ID NO 26 (designed binder)
chain: B14 chain with E30V, N34E, A38Y, T41L, I45S, G48S, V52T
modifications: biotinylated (Avitag system)
notes: 3 helical bundle ligand with Avitag and His tag; N-terminal Met may be absent; also called 26
B33: SEQ ID NO 37 (designed binder)
chain: B14 chain with E30H, E37Q, T41N, I45G, G48S, V52I
modifications: biotinylated (Avitag system)
notes: 3 helical bundle ligand with Avitag and His tag; N-terminal Met may be absent; also called 37
B34: SEQ ID NO 35 (designed binder)
chain: B14 chain with E30L, E37T, A38H, T41A, I45D, G48S, V52I, G55S
modifications: biotinylated (Avitag system)
notes: 3 helical bundle ligand with Avitag and His tag; N-terminal Met may be absent; also called 35
B35: SEQ ID NO 22 (designed binder)
chain: B14 chain with E30I, N34G, E37Q, A38T, T41A, I45E, G48T, V52I
modifications: biotinylated (Avitag system)
notes: 3 helical bundle ligand with Avitag and His tag; N-terminal Met may be absent; also called 22
B36: SEQ ID NO 33 (designed binder)
chain: B14 chain with E30Q, E37A, A38Q, T41L, I45D, G48T, V52I, K59S
modifications: biotinylated (Avitag system)
notes: 3 helical bundle ligand with Avitag and His tag; N-terminal Met may be absent; also called 33
B37: SEQ ID NO 32 (designed binder)
chain: B15 chain with F37T, S38A, N41Y, I48L, H59N
modifications: biotinylated (Avitag system)
notes: 3 helical bundle ligand with Avitag and His tag; N-terminal Met may be absent; also called 32

These binders were tested against T1, Haptoglobin protein (UniProt P00738 19-160; P00738 162-406, limits assumed) (assay: BLI; ligand held 8 h in 0.25 M NaOH, neutralised, against untreated ligand).
T1 construct: The background describes it as two alpha/beta dimers; also called Hp
T1 sequence (looked up) 1: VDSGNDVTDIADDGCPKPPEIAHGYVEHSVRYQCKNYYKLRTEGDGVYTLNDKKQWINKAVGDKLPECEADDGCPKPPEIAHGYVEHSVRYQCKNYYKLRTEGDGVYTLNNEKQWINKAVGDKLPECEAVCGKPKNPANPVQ
T1 sequence (looked up) 2: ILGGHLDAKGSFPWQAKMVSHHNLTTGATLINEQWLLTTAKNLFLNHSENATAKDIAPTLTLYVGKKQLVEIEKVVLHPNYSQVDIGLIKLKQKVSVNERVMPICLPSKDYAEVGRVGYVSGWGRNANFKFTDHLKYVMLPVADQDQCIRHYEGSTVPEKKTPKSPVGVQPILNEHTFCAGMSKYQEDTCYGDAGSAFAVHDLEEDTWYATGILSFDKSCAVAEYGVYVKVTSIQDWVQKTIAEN
Procedure: (§1) Biotinylated ligands were immobilized on sensors and incubated with solutions containing Haptoglobin protein at various concentrations. The binding curves were fitted with a 1:1 binding model using the ForteBio software to determine the affinity and the resulting data is shown in the table below. As expected, all affinity agents bind to Haptoglobin protein with high affinity.
Ligands were incubated in 0.25 M NaOH for 8 hours and then neutralized. The binding of the NaOH treated ligands was measured as described in Example 1 and compared to untreated ligand. The binding retained was calculated according to the following formula: […]

Binder	Binding retained after 8 hour exposure to 0.25M NaOH (%)
B1	82%
B2	74%
B3	80%
B4	76%
B5	84%
B6	90%
B7	84%
B8	82%
B9	85%
B10	79%
B11	92%
B12	93%
B13	66%
B14	97%
B15	86%
B16	95%
B17	95%
B18	97%
B19	95%

Binder	Binding retained after 8 hour exposure to 0.25M NaOH (%)
B20	90%
B21	89%
B22	95%
B23	90%
B24	88%
B25	96%
B26	87%
B27	100%
B28	93%
B29	95%
B30	98%
B31	100%
B32	84%
B33	90%
B34	84%
B35	90%
B36	87%
B37	84%

These binders were tested against T1, Haptoglobin protein (assay: BLI (ForteBio), biotinylated ligand on sensor, haptoglobin in solution, 1:1 fit).
Procedure: as §1

Binder	Kd
B1	< 1 nM
B2	< 1 nM
B3	< 1 nM
B4	4 nM
B5	< 1 nM
B6	< 1 nM
B7	< 1 nM
B8	< 1 nM
B9	< 1 nM
B10	< 1 nM
B11	2 nM
B12	< 1 nM
B13	< 1 nM
B14	< 1 nM
B15	2 nM
B16	< 1 nM
B17	< 1 nM
B18	1 nM
B19	< 1 nM

Binder	Kd
B20	< 1 nM
B21	6 nM
B22	7 nM
B23	6 nM
B24	< 1 nM
B25	3 nM
B26	< 1 nM
B27	< 1 nM
B28	< 1 nM
B29	< 1 nM
B30	< 1 nM
B31	< 1 nM
B32	< 1 nM
B33	< 1 nM
B34	5 nM
B35	< 1 nM
B36	< 1 nM
B37	3 nM
